The source of these data is paper PMC5520693.

The assay addresses T1, Flag-tagged TRIM45 (stably overexpressed in U87) (UniProt Q9H8W5).
T1 sequence: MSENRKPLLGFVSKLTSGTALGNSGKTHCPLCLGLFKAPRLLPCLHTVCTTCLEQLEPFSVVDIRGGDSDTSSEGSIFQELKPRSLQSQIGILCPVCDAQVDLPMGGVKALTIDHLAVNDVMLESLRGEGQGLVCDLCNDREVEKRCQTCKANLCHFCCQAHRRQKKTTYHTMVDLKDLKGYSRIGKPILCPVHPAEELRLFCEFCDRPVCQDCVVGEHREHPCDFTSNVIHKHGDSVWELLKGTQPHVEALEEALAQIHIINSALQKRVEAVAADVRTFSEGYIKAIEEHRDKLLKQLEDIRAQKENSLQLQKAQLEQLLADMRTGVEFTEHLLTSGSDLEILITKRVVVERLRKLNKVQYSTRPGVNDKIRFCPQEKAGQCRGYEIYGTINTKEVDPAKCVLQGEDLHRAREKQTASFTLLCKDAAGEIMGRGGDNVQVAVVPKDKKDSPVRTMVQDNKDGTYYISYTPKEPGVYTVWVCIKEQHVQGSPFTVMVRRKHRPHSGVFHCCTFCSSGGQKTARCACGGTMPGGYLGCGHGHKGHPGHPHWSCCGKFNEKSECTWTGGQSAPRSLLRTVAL
In words: co-IP; extracts of U87 cells stably overexpressing Flag-TRIM45 or control cells; immunoprecipitated with anti-Flag beads, immunoblotted with anti-p53. Background: Immunoblotting shows a protein as a band on a membrane.

Results are given in words; binding and its absence hold for the method and conditions named. Binding seen in cells or lysates may run through a third protein. Some binding calls cover weakened binding; strength is not graded here. Where a sequence is shown, tags or fusion partners need not be part of it.

Turning to “endogenous p53 (from UniProt P04637 1-393)”, the binding result was “binds”.
